In PMC12820563 one finds binding signal (RPM ratio (pull-down/input)) data, which are given here for 31 sequences.

Some of the results follow. The list includes weakly bound sequences.

The target in the assay is T1, MBP-FoxP3dN (UniProt Q99JB6).
T1 sequence: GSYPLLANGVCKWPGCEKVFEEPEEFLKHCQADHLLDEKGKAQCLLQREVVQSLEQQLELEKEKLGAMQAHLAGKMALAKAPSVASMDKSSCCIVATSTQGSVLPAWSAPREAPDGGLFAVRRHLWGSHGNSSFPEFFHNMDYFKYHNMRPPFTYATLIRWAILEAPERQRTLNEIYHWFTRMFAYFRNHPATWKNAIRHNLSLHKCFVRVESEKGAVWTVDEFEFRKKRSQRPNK
The assay is described as follows: PD-seq (MBP pull-down with sequencing). To be noted: 20 mM Tris-HCl pH 7.5, 100 mM NaCl, 1.5 mM MgCl2, 0.4 uM protein, 0.1 uM dsDNA library, 30 min, room temperature, amylose pull-down; high values mean tight binding; double strand, one strand shown.
For “GATGATTGTTCTCCCAGCTGATGAATTTGCATGGTCGAGTAAACAAATTTTCCTAATCTTTCTGTTCAAGCGCCATCTAC”, the binding signal (RPM ratio (pull-down/input)) turned out to be 2.9.

Take “GATGATTGTTCTCCCAGCTGATGAATTCCGTGGCTCGAGTAAACAAATTTTCCTAATCTTTCTGTTCAAGCGCCATCTAC”: the binding signal (RPM ratio (pull-down/input)) stood at 0.541.

On to “GATGATTGTTCTCCCAGCTGATGAATTACCTATATCGAGTAAACAAATTTTCCTAATCTTTCTGTTCAAGCGCCATCTAC”, for which the binding signal (RPM ratio (pull-down/input)) stood at 0.414.

In the case of “GATGATTGTTCTCCCAGCTGATGAATTTAACCACTCGAGTAAACAAATTTTCCTAATCTTTCTGTTCAAGCGCCATCTAC”, the binding signal (RPM ratio (pull-down/input)) stood at 0.412.

In the case of “GATGATTGTTCTCCCAGCTGATGAATTCACCTCATCGAGTAAACAAATTTTCCTAATCTTTCTGTTCAAGCGCCATCTAC”, the binding signal (RPM ratio (pull-down/input)) is 0.374.

“GATGATTGTTCTCCCAGCTGATGAATTCTTAATGTCGAGTAAACAAATTTTCCTAATCTTTCTGTTCAAGCGCCATCTAC”: the binding signal (RPM ratio (pull-down/input)) amounted to 0.369.

For the sequence “GATGATTGTTCTCCCAGCTGATGAATTTTCGGCATCGAGTAAACAAATTTTCCTAATCTTTCTGTTCAAGCGCCATCTAC”, the binding signal (RPM ratio (pull-down/input)) came out at 0.816.

In the case of “GATGATTGTTCTCCCAGCTGATGAATTGCGATAGTCGAGTAAACAAATTTTCCTAATCTTTCTGTTCAAGCGCCATCTAC”, the binding signal (RPM ratio (pull-down/input)) stood at 1.09.

Take “GATGATTGTTCTCCCAGCTGATGAATTGCTCGACTCGAGTAAACAAATTTTCCTAATCTTTCTGTTCAAGCGCCATCTAC”: the binding signal (RPM ratio (pull-down/input)) worked out at 0.415.

On to “GATGATTGTTCTCCCAGCTGATGAATTCTTTCGTTCGAGTAAACAAATTTTCCTAATCTTTCTGTTCAAGCGCCATCTAC”, for which the binding signal (RPM ratio (pull-down/input)) stood at 0.225.

As to “GATGATTGTTCTCCCAGCTGATGAATTCGTGACCTCGAGTAAACAAATTTTCCTAATCTTTCTGTTCAAGCGCCATCTAC”, the binding signal (RPM ratio (pull-down/input)) was found to be 0.418.

For the sequence “GATGATTGTTCTCCCAGCTGATGAATTACGGGCCTCGAGTAAACAAATTTTCCTAATCTTTCTGTTCAAGCGCCATCTAC”, the binding signal (RPM ratio (pull-down/input)) came to 0.504.

On to “GATGATTGTTCTCCCAGCTGATGAATTCCTTTTGTCGAGTAAACAAATTTTCCTAATCTTTCTGTTCAAGCGCCATCTAC”, for which the binding signal (RPM ratio (pull-down/input)) worked out at 0.531.

As to “GATGATTGTTCTCCCAGCTGATGAATTTTCTTGATCGAGTAAACAAATTTTCCTAATCTTTCTGTTCAAGCGCCATCTAC”, the binding signal (RPM ratio (pull-down/input)) was determined as 0.304.

On to “GATGATTGTTCTCCCAGCTGATGAATTAATACTCTCGAGTAAACAAATTTTCCTAATCTTTCTGTTCAAGCGCCATCTAC”, for which the binding signal (RPM ratio (pull-down/input)) stood at 0.53.

For the sequence “GATGATTGTTCTCCCAGCTGATGAATTAGAAGGGTCGAGTAAACAAATTTTCCTAATCTTTCTGTTCAAGCGCCATCTAC”, the binding signal (RPM ratio (pull-down/input)) is 0.267.

As for “GATGATTGTTCTCCCAGCTGATGAATTTATGGTCTCGAGTAAACAAATTTTCCTAATCTTTCTGTTCAAGCGCCATCTAC”, the binding signal (RPM ratio (pull-down/input)) worked out at 2.6.

Turning to “GATGATTGTTCTCCCAGCTGATGAATTGGTGACGTCGAGTAAACAAATTTTCCTAATCTTTCTGTTCAAGCGCCATCTAC”, the binding signal (RPM ratio (pull-down/input)) is 0.486.

Consider “GATGATTGTTCTCCCAGCTGATGAATTATTCTCTTCGAGTAAACAAATTTTCCTAATCTTTCTGTTCAAGCGCCATCTAC”, for which the binding signal (RPM ratio (pull-down/input)) amounted to 0.292.

For the sequence “GATGATTGTTCTCCCAGCTGATGAATTTCTCTAATCGAGTAAACAAATTTTCCTAATCTTTCTGTTCAAGCGCCATCTAC”, the binding signal (RPM ratio (pull-down/input)) amounted to 0.297.

As to “GATGATTGTTCTCCCAGCTGATGAATTAGGGTCCTCGAGTAAACAAATTTTCCTAATCTTTCTGTTCAAGCGCCATCTAC”, the binding signal (RPM ratio (pull-down/input)) came to 0.54.

For “GATGATTGTTCTCCCAGCTGATGAATTATCTAATTCGAGTAAACAAATTTTCCTAATCTTTCTGTTCAAGCGCCATCTAC”, the binding signal (RPM ratio (pull-down/input)) stood at 0.315.

For “GATGATTGTTCTCCCAGCTGATGAATTTTGAATATCGAGTAAACAAATTTTCCTAATCTTTCTGTTCAAGCGCCATCTAC”, the binding signal (RPM ratio (pull-down/input)) came out at 0.82.

As to “GATGATTGTTCTCCCAGCTGATGAATTGATGTCATCGAGTAAACAAATTTTCCTAATCTTTCTGTTCAAGCGCCATCTAC”, the binding signal (RPM ratio (pull-down/input)) is 1.17.

Regarding “GATGATTGTTCTCCCAGCTGATGAATTTGGCCCCTCGAGTAAACAAATTTTCCTAATCTTTCTGTTCAAGCGCCATCTAC”, the binding signal (RPM ratio (pull-down/input)) was found to be 1.41.

As to “GATGATTGTTCTCCCAGCTGATGAATTACTAGGGTCGAGTAAACAAATTTTCCTAATCTTTCTGTTCAAGCGCCATCTAC”, the binding signal (RPM ratio (pull-down/input)) was 0.234.

Turning to “GATGATTGTTCTCCCAGCTGATGAATTAGCCGGATCGAGTAAACAAATTTTCCTAATCTTTCTGTTCAAGCGCCATCTAC”, the binding signal (RPM ratio (pull-down/input)) was found to be 0.197.

With “GATGATTGTTCTCCCAGCTGATGAATTACGGCAATCGAGTAAACAAATTTTCCTAATCTTTCTGTTCAAGCGCCATCTAC”, the binding signal (RPM ratio (pull-down/input)) turned out to be 1.93.

As to “GATGATTGTTCTCCCAGCTGATGAATTTCACTAGTCGAGTAAACAAATTTTCCTAATCTTTCTGTTCAAGCGCCATCTAC”, the binding signal (RPM ratio (pull-down/input)) worked out at 0.269.

Regarding “GATGATTGTTCTCCCAGCTGATGAATTACGAAGCTCGAGTAAACAAATTTTCCTAATCTTTCTGTTCAAGCGCCATCTAC”, the binding signal (RPM ratio (pull-down/input)) came to 0.301.

For the sequence “GATGATTGTTCTCCCAGCTGATGAATTAGTATACTCGAGTAAACAAATTTTCCTAATCTTTCTGTTCAAGCGCCATCTAC”, the binding signal (RPM ratio (pull-down/input)) is 4.99.
